{"source": "patent CN109498565A", "binders": {"B1": {"name": "抗PD-1抗体SYN125 (antibody, part only; not given: nothing essential, part only)", "heavy": "QVTLKESGPALVKPTQTLTLTCTFSGFSLSTSGTCVSWIRQPPGKALEWLATICWEDSKGYNPSLKSRLTISKDTSKNQAVLTMTNMDPVDTATYYCARREDSGYFWFPYWGQGTLVTVSSASTKGPSVFPLAPCSRSTSESTAALGCLVKDYFPEPVTVSWNSGALTSGVHTFPAVLQSSGLYSLSSVVTVPSSSLGTKTYTCNVDHKPSNTKVDKRV[letters of human IgG4 Fc with S228P (EU numbers) omitted]"}}, "key": {"[1]": {"molecular_target": "PD-1 on PD-1 Effector Cells (Promega) (UniProt Q15116)", "experiment": "cell-based or functional assay"}, "[2]": {"molecular_target": "PD-1抗原 (UniProt Q15116)", "experiment": "competitive ELISA, PD-1 antigen coated, competitor PD-L1 at a fixed concentration; ratio to standard from fitted EC50"}}, "note": "“And” between values parts separate entries of the source, which are not always exact repeats. Equal values may be shown once.", "data": [{"binder": "B1", "values": [{"measurement": "生物学活性检测结果 (relative to reference SYN125-RS02; NFAT-RE luminescence reporter, PD-1 Effector Cells + PD-L1 aAPC/CHO-K1 Cells)", "setting": "[1]", "value": "76% and 87%"}, {"measurement": "平均比活性 (relative blocking activity against standard SYN125-RS02)", "setting": "[2]", "value": "105% and 85%"}]}]}
